The values that follow come from the supplement of paper PMC3334620.

Over roughly 33,000 sequences, “E-score (-0.5 to 0.5)” has its median near -0.012; the highest 2% begin near 0.29. The list shows a part of the results.

In the test the target is T1, Ybr033w (UniProt P38073).
T1 sequence: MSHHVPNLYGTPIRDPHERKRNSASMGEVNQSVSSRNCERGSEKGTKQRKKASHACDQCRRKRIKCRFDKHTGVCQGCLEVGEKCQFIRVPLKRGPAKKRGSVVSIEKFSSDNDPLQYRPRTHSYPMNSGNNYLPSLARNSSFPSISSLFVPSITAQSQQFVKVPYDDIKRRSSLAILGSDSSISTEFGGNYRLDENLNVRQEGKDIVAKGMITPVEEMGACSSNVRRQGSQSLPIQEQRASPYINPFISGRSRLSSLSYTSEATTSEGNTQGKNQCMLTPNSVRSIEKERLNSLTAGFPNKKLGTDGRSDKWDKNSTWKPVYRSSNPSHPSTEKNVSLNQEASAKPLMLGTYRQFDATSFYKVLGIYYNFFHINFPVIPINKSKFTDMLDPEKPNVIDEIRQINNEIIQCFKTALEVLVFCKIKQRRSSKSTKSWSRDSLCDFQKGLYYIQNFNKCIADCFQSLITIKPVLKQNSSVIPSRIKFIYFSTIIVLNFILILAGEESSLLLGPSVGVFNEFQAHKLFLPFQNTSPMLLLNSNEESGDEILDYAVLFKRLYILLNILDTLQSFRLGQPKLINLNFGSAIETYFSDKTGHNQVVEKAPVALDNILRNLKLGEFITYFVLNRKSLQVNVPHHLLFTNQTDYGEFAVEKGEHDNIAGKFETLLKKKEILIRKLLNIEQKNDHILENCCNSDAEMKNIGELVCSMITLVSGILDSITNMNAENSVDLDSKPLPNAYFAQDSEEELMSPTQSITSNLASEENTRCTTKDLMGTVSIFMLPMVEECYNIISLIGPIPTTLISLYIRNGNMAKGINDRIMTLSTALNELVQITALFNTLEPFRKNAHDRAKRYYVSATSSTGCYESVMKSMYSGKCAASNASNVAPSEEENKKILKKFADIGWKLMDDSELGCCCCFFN
Put plainly: PBM E-score (8-mer binding enrichment) (E-score (-0.5 to 0.5)); higher = stronger / more preferred TF binding; most listed sequences are background and not binding sites. The note with it: protein concentration: 200 nM; construct: GST-full length. The gist of the method: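 Full-length yeast transcription factors or their DNA-binding domains, GST-tagged and expressed with PURExpress, were applied at about 100-200 nM to universal all-10-mer Agilent arrays. These arrays had been made double-stranded by primer extension on fresh or once-stripped slides. Detection used fluorescent anti-GST, normalisation used masliner, and E-scores for ungapped eight-base words pooled with reverse complements came from the Universal PBM Analysis Suite.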
Turning to GAGGATGC, the “PBM E-score” value is -0.183.

Turning to CTCGCTCA, the “PBM E-score” value amounted to 0.00555.

With GCATATAA, the “PBM E-score” value turned out to be 0.102.

CACATTGC: the “PBM E-score” value amounted to 0.16.

Take ATCGGATA: the “PBM E-score” value was 0.199.

With CTGCCTTA, the “PBM E-score” value is -0.146.

With CGTGATCC, the “PBM E-score” value is -0.149.

As to CTGGCGCC, the “PBM E-score” value is -0.0825.

CACCCTAC: the “PBM E-score” value is 0.0503.

As to CCCTAAAG, the “PBM E-score” value was -0.225.

For the sequence CGGGGAGA, the “PBM E-score” value was -0.304.

As for CTGAGCTC, the “PBM E-score” value was -0.105.

Turning to GGTTTGAC, the “PBM E-score” value is -0.0432.

Turning to CGTAGAAG, the “PBM E-score” value turned out to be 0.00869.

As for ATACGTGG, the “PBM E-score” value was determined as 0.177.

Regarding TAAATCCA, the “PBM E-score” value is 0.182.

As to ATATCTGG, the “PBM E-score” value was 0.137.

With ACTACGAC, the “PBM E-score” value was -0.0273.

For CTTCATTC, the “PBM E-score” value came out at 0.0202.

As for CTCCGCAG, the “PBM E-score” value was found to be 0.0368.

Regarding GATAAGGC, the “PBM E-score” value is -0.12.

On to AAAAGGCG, for which the “PBM E-score” value is -0.159.

Regarding CCTAATCC, the “PBM E-score” value is -0.274.

Consider AATAAATC, for which the “PBM E-score” value turned out to be 0.263.

For the sequence GAGTTGAA, the “PBM E-score” value is -0.064.

As for CATACGAA, the “PBM E-score” value is 0.149.

On to CTTCCCGC, for which the “PBM E-score” value is 0.0878.

Regarding GTCCCCTA, the “PBM E-score” value is -0.329.

Regarding AGTGAACT, the “PBM E-score” value is -0.0359.

As for ACCCATCA, the “PBM E-score” value was -0.172.

Regarding AGGGCCCA, the “PBM E-score” value is -0.356.

For the sequence AACTGGCT, the “PBM E-score” value is -0.0714.

Consider AGAGCGGG, for which the “PBM E-score” value was -0.187.

In the case of CGAAGGCC, the “PBM E-score” value was -0.246.

Consider CAGAGCAC, for which the “PBM E-score” value was -0.115.

Turning to GATCTGGC, the “PBM E-score” value is -0.0426.

Turning to GGGGGCAC, the “PBM E-score” value is -0.389.

Take ATCGGTGG: the “PBM E-score” value is -0.146.

For the sequence ATCCGATG, the “PBM E-score” value was determined as 0.0624.

In the case of CCCCTTCC, the “PBM E-score” value was -0.297.

As for ATTCACAA, the “PBM E-score” value stood at 0.294.

As for ACTAAAGG, the “PBM E-score” value was 0.0297.

For the sequence GAATGGGC, the “PBM E-score” value is -0.0502.

With CGCACGCG, the “PBM E-score” value was -0.198.

For CGAAGCCG, the “PBM E-score” value was -0.216.

Turning to ACATGCTA, the “PBM E-score” value was -0.0448.

Regarding CTAATTAC, the “PBM E-score” value came to 0.131.

In the case of GGTAATAA, the “PBM E-score” value is 0.228.

With AGAGTCAA, the “PBM E-score” value was -0.0338.

Regarding AGCAATAT, the “PBM E-score” value stood at 0.282.

Take AGGTAGCA: the “PBM E-score” value was -0.121.

For CTTGTGGA, the “PBM E-score” value came to 0.0482.

As for ATGTACGG, the “PBM E-score” value worked out at 0.0999.

For CATGGGAA, the “PBM E-score” value was 0.102.

Turning to AAGGAGAC, the “PBM E-score” value was -0.139.

Regarding CGCGTTTA, the “PBM E-score” value stood at 0.0944.

For the sequence CGAAGTCG, the “PBM E-score” value is 0.0931.

As to ACCATAGG, the “PBM E-score” value is -0.0779.

As to AATAAAAA, the “PBM E-score” value worked out at 0.252.

Take GAGTTAGA: the “PBM E-score” value is -0.0392.

With GATGGTAA, the “PBM E-score” value was found to be 0.0411.

On to AGTTGGCG, for which the “PBM E-score” value was 0.0839.

For GATTATCA, the “PBM E-score” value turned out to be 0.19.

Turning to GACAGAGA, the “PBM E-score” value is -0.066.

As to CGACGTCG, the “PBM E-score” value was -0.00674.

CCGATGCG: the “PBM E-score” value was -0.209.

As to GGCTTGGA, the “PBM E-score” value was -0.168.

For CGGTACGA, the “PBM E-score” value was -0.239.

Take ACCCATTA: the “PBM E-score” value came out at 0.0435.

GTGCTTGA: the “PBM E-score” value is 0.0747.

Regarding CGAACACG, the “PBM E-score” value is -0.144.

As to CCCACGCG, the “PBM E-score” value was -0.284.

Take AAGGGGCT: the “PBM E-score” value is -0.163.

Turning to CAAGTGTG, the “PBM E-score” value stood at 0.0102.

For the sequence GCGTATCC, the “PBM E-score” value is -0.146.

With AATTGCCG, the “PBM E-score” value was 0.0142.

With ACTCCCCG, the “PBM E-score” value is 0.0663.

In the case of GGCGGACA, the “PBM E-score” value is -0.0294.

On to GCCAGTTA, for which the “PBM E-score” value is -0.00597.

Turning to CTTAAATA, the “PBM E-score” value was found to be 0.114.

For CGACCCTA, the “PBM E-score” value is -0.196.

Consider AGTCGTAT, for which the “PBM E-score” value worked out at 0.0278.

For GGTGACCA, the “PBM E-score” value was -0.121.

In the case of CCCTGCTC, the “PBM E-score” value is -0.242.

Regarding CTGCGTGC, the “PBM E-score” value was -0.0264.

For the sequence GGAGACCA, the “PBM E-score” value was -0.208.
